Assay results reported in paper PMC8253491.
These are yes or no findings as the source states them, for the method shown. In cells and extracts the contact can be indirect. Some binding calls cover weakened binding; strength is not graded here. For some assays here: Sequences can lack the tags named with a protein.

Amino acid sequences for entries named in this document (tags omitted).
UniProt Q8IXI2: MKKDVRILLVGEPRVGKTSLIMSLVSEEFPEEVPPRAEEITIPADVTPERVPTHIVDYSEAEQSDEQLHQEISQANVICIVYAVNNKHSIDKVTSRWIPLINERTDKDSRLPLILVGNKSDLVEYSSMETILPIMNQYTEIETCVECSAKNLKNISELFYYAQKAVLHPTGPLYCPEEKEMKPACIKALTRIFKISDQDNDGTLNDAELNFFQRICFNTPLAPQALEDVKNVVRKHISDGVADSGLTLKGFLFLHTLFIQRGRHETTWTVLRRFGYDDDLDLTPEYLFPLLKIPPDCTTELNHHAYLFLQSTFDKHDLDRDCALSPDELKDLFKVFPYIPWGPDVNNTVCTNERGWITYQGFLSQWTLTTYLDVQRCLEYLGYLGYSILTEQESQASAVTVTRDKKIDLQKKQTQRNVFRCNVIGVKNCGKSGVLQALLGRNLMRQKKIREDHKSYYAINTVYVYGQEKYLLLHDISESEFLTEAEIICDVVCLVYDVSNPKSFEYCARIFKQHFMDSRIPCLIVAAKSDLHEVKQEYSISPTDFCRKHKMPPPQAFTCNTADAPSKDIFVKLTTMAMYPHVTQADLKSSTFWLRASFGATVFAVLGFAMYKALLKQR
UniProt P62745: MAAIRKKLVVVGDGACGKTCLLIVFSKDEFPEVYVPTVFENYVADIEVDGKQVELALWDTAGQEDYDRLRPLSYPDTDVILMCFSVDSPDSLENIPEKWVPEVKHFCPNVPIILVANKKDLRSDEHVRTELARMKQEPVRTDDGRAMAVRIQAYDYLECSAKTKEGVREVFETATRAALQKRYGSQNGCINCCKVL
UniProt P08134: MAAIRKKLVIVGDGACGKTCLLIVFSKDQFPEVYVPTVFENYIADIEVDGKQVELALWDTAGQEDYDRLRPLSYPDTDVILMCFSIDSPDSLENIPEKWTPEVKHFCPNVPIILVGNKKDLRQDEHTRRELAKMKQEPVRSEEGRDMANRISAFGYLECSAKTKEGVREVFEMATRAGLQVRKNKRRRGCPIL
UniProt P17081: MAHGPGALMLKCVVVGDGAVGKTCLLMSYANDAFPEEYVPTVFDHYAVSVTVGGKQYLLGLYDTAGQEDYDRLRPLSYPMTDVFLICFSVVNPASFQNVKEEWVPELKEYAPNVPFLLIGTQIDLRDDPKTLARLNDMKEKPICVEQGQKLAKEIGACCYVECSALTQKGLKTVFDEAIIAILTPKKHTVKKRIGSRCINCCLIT
UniProt P60953: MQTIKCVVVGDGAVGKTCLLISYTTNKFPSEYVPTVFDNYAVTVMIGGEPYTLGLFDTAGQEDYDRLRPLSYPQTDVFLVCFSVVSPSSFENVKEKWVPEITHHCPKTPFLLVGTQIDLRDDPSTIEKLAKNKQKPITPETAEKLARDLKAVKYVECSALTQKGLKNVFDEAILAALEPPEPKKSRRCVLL
UniProt P61586: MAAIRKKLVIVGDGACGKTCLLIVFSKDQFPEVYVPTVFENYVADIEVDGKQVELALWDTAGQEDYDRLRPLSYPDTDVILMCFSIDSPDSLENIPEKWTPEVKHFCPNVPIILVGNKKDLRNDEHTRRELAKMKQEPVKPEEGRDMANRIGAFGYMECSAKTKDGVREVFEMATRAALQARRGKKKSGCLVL
UniProt P84095: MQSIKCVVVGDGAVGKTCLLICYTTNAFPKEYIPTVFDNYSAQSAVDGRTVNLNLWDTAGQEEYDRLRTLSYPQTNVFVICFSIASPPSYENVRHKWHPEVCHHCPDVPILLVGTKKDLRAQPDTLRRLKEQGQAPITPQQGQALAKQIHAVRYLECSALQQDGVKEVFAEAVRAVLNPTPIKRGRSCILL
UniProt Q9H4E5: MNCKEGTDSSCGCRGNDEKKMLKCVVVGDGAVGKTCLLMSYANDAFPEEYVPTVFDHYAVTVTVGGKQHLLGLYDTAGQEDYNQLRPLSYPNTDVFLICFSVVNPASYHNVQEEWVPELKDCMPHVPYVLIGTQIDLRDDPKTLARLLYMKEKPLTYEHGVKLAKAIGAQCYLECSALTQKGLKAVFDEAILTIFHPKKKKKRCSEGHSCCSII
UniProt Q7L0Q8: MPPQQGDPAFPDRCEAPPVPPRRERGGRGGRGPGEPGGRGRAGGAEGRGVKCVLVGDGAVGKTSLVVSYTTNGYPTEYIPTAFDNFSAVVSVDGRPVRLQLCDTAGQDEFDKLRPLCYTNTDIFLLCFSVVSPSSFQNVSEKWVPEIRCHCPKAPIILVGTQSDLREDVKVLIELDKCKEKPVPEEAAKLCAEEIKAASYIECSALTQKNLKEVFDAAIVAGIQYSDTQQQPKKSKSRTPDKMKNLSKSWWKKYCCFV

Experiments:
[1] = target: His-tagged RhoGDI-1 (human) (UniProt P52565); test: pull-down; His-tagged RhoGDI co-expressed with V5-tagged GTPase in HEK293T; RhoGDI precipitated from lysate (1% Triton X-100, 150 mM NaCl, pH 7.4) with nickel-coated magnetic beads; anti-V5 Western blot; the paper calls it coimmunoprecipitation
[2] = target: T1, FLAG-tagged RhoGDI-3 (human) (UniProt Q99819); test: co-IP; FLAG-tagged RhoGDI-3 co-expressed with V5-tagged GTPase in HEK293T; immunoprecipitated from lysate with anti-FLAG antibody cross-linked to magnetic beads; anti-V5 Western blot
T1 sequence: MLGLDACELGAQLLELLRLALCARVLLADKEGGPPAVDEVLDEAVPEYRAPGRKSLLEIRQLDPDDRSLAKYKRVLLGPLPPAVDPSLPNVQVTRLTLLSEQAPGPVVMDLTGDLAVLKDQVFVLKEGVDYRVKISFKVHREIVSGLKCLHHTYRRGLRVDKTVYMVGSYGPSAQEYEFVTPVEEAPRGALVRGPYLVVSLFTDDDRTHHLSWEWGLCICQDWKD

[3] = target: T2, His-tagged or FLAG-tagged RhoGDI-1 (human) (UniProt P52565); test: pull-down + co-IP; His-tagged or FLAG-tagged RhoGDI-1 or RhoGDI-2 co-expressed with V5-tagged atypical GTPase or Miro in HEK293T; precipitated with nickel-coated magnetic beads or with anti-FLAG antibody cross-linked to magnetic beads (not told which in each panel); anti-V5 Western blot
T2 sequence: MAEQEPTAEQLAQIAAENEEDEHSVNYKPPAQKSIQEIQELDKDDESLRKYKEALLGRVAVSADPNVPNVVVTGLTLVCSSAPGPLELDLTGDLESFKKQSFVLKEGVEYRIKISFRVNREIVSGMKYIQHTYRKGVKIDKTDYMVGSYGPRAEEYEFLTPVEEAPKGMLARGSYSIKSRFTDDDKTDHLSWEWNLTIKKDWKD

[4] = target: T3, His-tagged or FLAG-tagged RhoGDI-2 (human) (UniProt P52566); test: as above
T3 sequence: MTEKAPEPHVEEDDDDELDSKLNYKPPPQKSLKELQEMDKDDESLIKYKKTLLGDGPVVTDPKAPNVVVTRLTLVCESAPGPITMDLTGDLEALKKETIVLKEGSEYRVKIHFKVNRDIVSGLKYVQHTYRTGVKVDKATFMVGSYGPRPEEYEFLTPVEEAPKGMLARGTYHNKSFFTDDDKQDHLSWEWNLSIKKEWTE

[5] = target: His-tagged RhoGDI-2 (human) (UniProt P52566); test: pull-down; His-tagged RhoGDI co-expressed with V5-tagged GTPase in HEK293T; RhoGDI precipitated from lysate (1% Triton X-100, 150 mM NaCl, pH 7.4) with nickel-coated magnetic beads; anti-V5 Western blot; the paper calls it coimmunoprecipitation

| Substance | binding [1] | binding [2] | binding [3] | binding [4] | binding [5] |
| --- | --- | --- | --- | --- | --- |
| V5-tagged Miro1 (from UniProt Q8IXI2 1-618) | – | no binding | no binding | no binding | – |
| V5-tagged RhoB (from UniProt P62745 1-196) | – | binds | – | – | no binding |
| V5-tagged RhoC (from UniProt P08134 1-193) | binds | binds | – | – | – |
| V5-tagged TC10/RhoQ (from UniProt P17081 1-205) | no binding | no binding | – | – | no binding |

Second part, the substance after the results:

| binding [1] | binding [2] | binding [3] | binding [4] | binding [5] | Substance |
| --- | --- | --- | --- | --- | --- |
| binds | no binding | – | – | – | V5-tagged Cdc42 (from UniProt P60953 1-191) |
| binds | binds | – | – | – | V5-tagged RhoA (from UniProt P61586 1-193) |
| binds | binds | – | – | no binding | V5-tagged RhoG (from UniProt P84095 1-191) |
| no binding | no binding | – | – | no binding | V5-tagged TCL/RhoJ (from UniProt Q9H4E5 1-214) |
| – | no binding | no binding | no binding | – | V5-tagged Wrch1/RhoU (from UniProt Q7L0Q8 1-258) |
